Assay results from article PMC4336329 (PLoS ONE, 2015).
Out of some 310,000 compounds screened, about 2,200 (0.71%) showed an effect of 50% or more. Effects have a minus sign here. The list shows a part of the results.

target: human ether-à-go-go-related gene (hERG) potassium channel (human, UniProt Q12809); experiment: primary screen, population patch clamp on CHO cells stably expressing hERG
Sequence (Q12809 whole entry, looked up): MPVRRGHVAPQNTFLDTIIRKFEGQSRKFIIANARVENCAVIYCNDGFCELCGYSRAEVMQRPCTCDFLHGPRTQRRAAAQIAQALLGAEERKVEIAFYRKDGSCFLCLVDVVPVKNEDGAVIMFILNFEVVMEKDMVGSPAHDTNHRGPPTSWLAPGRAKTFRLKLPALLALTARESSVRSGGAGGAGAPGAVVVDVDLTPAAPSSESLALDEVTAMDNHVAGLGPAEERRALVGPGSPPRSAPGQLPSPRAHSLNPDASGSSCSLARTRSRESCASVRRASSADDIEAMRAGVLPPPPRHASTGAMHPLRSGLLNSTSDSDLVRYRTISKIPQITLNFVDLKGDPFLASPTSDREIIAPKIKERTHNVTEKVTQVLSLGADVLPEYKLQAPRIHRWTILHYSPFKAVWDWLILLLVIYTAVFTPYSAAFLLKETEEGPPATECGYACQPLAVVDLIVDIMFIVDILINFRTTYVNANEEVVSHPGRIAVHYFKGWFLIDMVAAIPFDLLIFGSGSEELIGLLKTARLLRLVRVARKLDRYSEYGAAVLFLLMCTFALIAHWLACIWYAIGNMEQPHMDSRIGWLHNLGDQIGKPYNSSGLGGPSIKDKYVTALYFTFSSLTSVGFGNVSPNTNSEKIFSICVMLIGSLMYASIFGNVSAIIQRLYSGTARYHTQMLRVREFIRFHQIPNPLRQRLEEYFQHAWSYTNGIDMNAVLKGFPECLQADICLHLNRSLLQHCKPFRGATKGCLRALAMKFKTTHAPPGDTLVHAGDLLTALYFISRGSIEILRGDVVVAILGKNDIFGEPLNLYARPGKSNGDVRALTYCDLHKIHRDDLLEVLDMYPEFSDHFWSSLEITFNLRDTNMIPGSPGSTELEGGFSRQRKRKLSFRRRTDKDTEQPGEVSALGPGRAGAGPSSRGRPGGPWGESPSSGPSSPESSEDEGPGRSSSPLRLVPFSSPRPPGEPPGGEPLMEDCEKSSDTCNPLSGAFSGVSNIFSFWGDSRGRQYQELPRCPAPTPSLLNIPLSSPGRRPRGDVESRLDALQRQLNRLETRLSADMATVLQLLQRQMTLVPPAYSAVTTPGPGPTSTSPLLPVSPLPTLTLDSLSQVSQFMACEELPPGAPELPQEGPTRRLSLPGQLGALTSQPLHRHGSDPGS

SMILES | hERG current change (%, negative = inhibition) at 1uM [%]
COc1cc(-c2nnc(SCc3cccnc3)n2C)cc(OC)c1O | 5.15
O=C(C(Cl)Cl)N1c2ccccc2OCC1c1ccccc1 (centres unmarked) | 4.21
COc1ccccc1CN1CC(C(=O)NCc2ccc(N3CCCC3=O)cc2)CCC1=O (centres unmarked) | 19.4
COc1ccc(CNC(=O)C2CCCN(S(=O)(=O)N3CCC(C)CC3)C2)c(OC)c1 (centres unmarked) | 36.2
CCCCn1c(SCC(=O)NCc2ccco2)nnc1-c1ccoc1C | 9.53
O=C(CC12CC3CC(CC(C3)C1)C2)N1CCN(S(=O)(=O)c2cccs2)CC1 | 19.3
COc1ccc(C2=NCCn3nc4cc([N+](=O)[O-])ccc4c32)cc1 | 5.39
CCN(CC)CCCn1c(SCC(=O)Nc2cccc(F)c2)nnc1-c1ccoc1C | -63
O=C(Nc1ccccc1C(F)(F)F)c1cc(S(=O)(=O)N2CCC3(CC2)OCCO3)ccc1F | -7.86
Cc1cc(SCC2=NNC(=O)C2)c(Cl)cc1Cl | 13.5
Cc1ccc2c(c1)CC1(CN2C)C(=O)NC(=O)N(c2cc(C)ccc2C)C1=O (centres unmarked) | -0.259
CCOc1cc(CNn2cn[nH]c2=S)cc(Cl)c1OCc1ccccc1F | 11.1
OCC[C@H]1C[C@@H](O)[C@H](O)[C@@]2(CCc3ccccc3O2)O1 | 12.2
C/C(=N\Nc1ncc(Cl)cc1Cl)c1ccc(OC(F)F)cc1 | -8.03
O=C(Nc1ccc(F)cc1)C1CC2CCC1C2 (centres unmarked) | 12.7
O=C(CNC(=O)c1ccccc1F)NC1CCN(Cc2ccccc2)CC1 | 13.4
CC(=O)c1ccc([C@@H]2C[C@]34CN(Cc5cccc(C(F)(F)F)c5)S(=O)(=O)[C@H]3C[C@H]2O4)cc1 | 2.62
CCOc1ccccc1NC(=O)CCCc1nc2ccccc2c(=O)[nH]1 | 7.17
CC1CCN(c2nc3ccccc3nc2C(C#N)C(=O)NC2CCCCC2)CC1 (centres unmarked) | 7.85
O=C(Nc1ccccc1)/C(=C\c1ccco1)NC(=O)c1ccco1 | 4.63
CCCOc1ccc(C(=O)NNC(=S)NC(=O)CC)cc1 | 9.23
Cc1ccc(-n2c(-c3cc(C)n(C)n3)n[nH]c2=S)cc1 | 20.3
NC(=O)CSc1cn(Cc2ccccc2)c2ccccc12 | 10.2

SMILES | hERG current change (%, negative = inhibition) at 1uM [%]
O=C(O)c1cc(C(=O)O)cc(N2C(=O)CSC2=S)c1 | 12.2
COC1(OC)C=CC(=O)C=C1NC(=O)c1ccccc1OC(C)=O | 4.68
CC1CCc2nc(NC(=O)CCSc3ccccc3)sc2C1 (centres unmarked) | 4.84
C/C(=N\NC(=O)c1cc(C)[nH]n1)c1ccc(-c2ccccc2)cc1 | 13.7
COc1cc(C(=O)NCC(=O)OCC(=O)c2ccc[nH]2)cc(OC)c1OC | 15.7
Cc1cccc(-n2nnc3c(=O)n(Cc4ccccn4)cnc32)c1 | 10.1
COc1ccc(NC(=O)CN(c2ccc(C)cc2)S(=O)(=O)c2c(C)nn(C)c2C)cc1OC | 13.5
Cc1nn(CC(=O)NC2CCCC2)c(C)c1[N+](=O)[O-] | 11
COc1ccc(CS(=O)(=O)/C(Cl)=C(/Cl)C(=O)Nc2ccc(OC)nc2)cc1 | 12.5
O=C(NCC1CCCO1)[C@@H]1CSC2c3ccccc3C(=O)N21 (some centres unmarked) | 5.34
CN(C)c1ccc(CN(C(=O)c2cc3ccccc3oc2=O)C2CCS(=O)(=O)C2)cc1 (centres unmarked) | 8.09
Cn1c(SCC(=O)O)nnc1-c1ccc2ncccc2c1 | 10.7
CCN(CC)S(=O)(=O)c1ccc2c(c1)nc(CCC(=O)OCC(=O)Nc1cc(OC)cc(OC)c1)n2C | -12.7
Cl.c1ccc2c(c1)nc(N1CCCCC1)c1ccccc12 | 5.96
CC/C(=N/NC(=O)c1ccc(Br)cc1)c1ccc(OCCN2CCOCC2)cc1 | -3.84
COCCn1c(SCC(=O)Nc2ccc(NC(C)=O)cc2)nc2ccccc2c1=O | 13.7
Cc1cc(NC(=O)CCCC(=O)N(c2ccccc2)C(C(=O)NC2CCCCC2)c2cccs2)no1 (centres unmarked) | -7.59
CCNC(=O)COC(=O)COc1ccc(Cl)cc1C | 9.46
c1ccc2c(c1)nc1n2CC2CON(C3CCCCC3)C12 (centres unmarked) | 3.37
CC(=O)NCc1c(Cl)cccc1-n1cccc1 | 15.4
C/C(=N\Nc1nc2c(s1)CCCC2)c1ccc(Cl)cc1.Cl | 6.26
CCN(Cc1cc2ccccc2[nH]c1=O)C(=O)c1cccnc1 | 4.01
COc1cccc(NC(C(=O)Nc2cccc(C(C)=O)c2)c2ccccc2)c1 (centres unmarked) | 9.07

SMILES | hERG current change (%, negative = inhibition) at 1uM [%]
Cc1ccc(S(=O)(=O)Nc2cccnc2)cc1C | 9.89
COc1cccc(NC(=O)CN(C)C(=O)CNC(=O)c2ccc(Oc3ccccc3)cc2)c1 | 1.28
COc1cc([N+](=O)[O-])ccc1NC(=O)COC(=O)c1ccc(NC(N)=O)cc1 | 11.2
Cc1oc(-c2ccccc2Cl)nc1CS(=O)CC(=O)N1CCN(c2ccccc2)CC1 (centres unmarked) | 7.95
CC1CCCCN1C(=O)CSc1nnc(-c2ccccc2F)o1 (centres unmarked) | 11.1
COc1ccc(C2C(C#N)=C(N)OC3=C2C(=O)CC(C)(C)C3)cc1OC (centres unmarked) | 7.6
CC(C)N(CC#CCC1(O)c2ccccc2-c2ccccc21)CCO | 8.43
CC(=O)C(/C=N/c1ncc(C(F)(F)F)cc1Cl)=C(\C)O | 8.52
CCCCc1nnc(NC(=O)CN2C(=O)c3ccccc3C2=O)s1 | -2.77
O=C(NCc1cccnc1)C1c2ccccc2C(=O)N1C1CCCCCCC1 (centres unmarked) | 6.62
CCCN1C(=O)C(Cc2nc3ccccc3c(=O)n2-c2ccccc2)c2cc(C)ccc21 (centres unmarked) | 1.98
Cc1ccccc1N=C1Nc2ccccc2CS1 | 21.2
Cc1ccc(CSc2ccc(-c3ccc4c(c3)OCO4)nn2)cc1 | 12.7
CCOC(=O)c1sc(SC)nc1N | 6.66
O=C(Nc1ccccc1C(=O)Nc1ccccc1)c1ccccc1Br | 12.3
COc1ccc(C(CNC(=O)c2c(C)nn(Cc3ccccc3)c2Cl)N2CCOCC2)cc1 (centres unmarked) | 7.13
CC(NC(=O)OC(C)(C)C)C(=O)Oc1ccc2ccc(=O)oc2c1 (centres unmarked) | 12.8
CCn1c(=O)n(CC)c2cc(N3CCCC3)c(NC(=O)c3ccc(F)cc3)cc21 | 0.988
CC1=C(CC(=O)O)c2cc(F)ccc2/C1=C\c1ccc(S(C)=O)cc1 (centres unmarked) | 0.294
Cc1cc(NC(=O)c2ccco2)ccc1-n1cnnn1 | 3.85
Cc1nnc(SCc2cc(=O)[nH]c(N3CCCCC3)n2)s1 | 8.77
CCCCCC1CCC(c2ccc(C(N)=O)cc2)CC1 (centres unmarked) | 9.37
O=c1c2ccccc2cnn1Cc1n[nH]c(=S)n1-c1cc(Cl)cc(Cl)c1 | 9.86

SMILES | hERG current change (%, negative = inhibition) at 1uM [%]
Cc1cccc(-n2c(-c3ccc(Br)o3)n[nH]c2=S)c1 | 13
Cc1cc(N/N=C/c2ccc([N+](=O)[O-])o2)nc2ccccc12 | 9.29
Cc1cc(S(=O)(=O)N2CCN(c3ccccn3)CC2)ccc1F | 9.75
CS(=O)(=O)N1CCC(C(=O)Nc2ccc(Cl)c(C(F)(F)F)c2)CC1 | 0.657
COc1cccc(/C=N/n2nnc3c(cnn3-c3ccccc3)c2=O)c1 | 10.7
CCOc1ccc(NC(=O)C2CCC(N3C(=O)C4CC=CCC4C3=O)CC2)cc1 (centres unmarked) | 16.9
COc1ccc(C(=O)NCC(c2ccco2)N2CCCC2)cc1S(=O)(=O)N1CCCCC1C (centres unmarked) | -16.2
CCc1noc(C)c1C(=O)Nc1cc(S(=O)(=O)N2CCOCC2)ccc1OC(C)C | -1.94
O=S(=O)(O)c1nc2ccccc2n1Cc1ccc(Cl)cc1 | 14.1
Cl.c1csc(CN2CCNCC2)c1 | 11.4
CC(C(=O)O)N1C(=O)c2ccccc2C1=O (centres unmarked) | 0.051
O=C(O)C1CCCCC1C(=O)NC(c1ccccc1)c1ccccc1 (centres unmarked) | 6.28
O=C1c2cccc([N+](=O)[O-])c2C(=O)N1CCO | 10.8
CCOC(=O)c1sc(Nc2nc3c(OC)cccc3s2)cc1C | -3.13
Cc1ccc(S(=O)(=O)C2CCOC2=O)cc1 (centres unmarked) | 2.77
Cc1ccc(N(C(=O)CNC(=O)c2ccco2)C(C(=O)NC2CCCCC2)c2cccnc2)cc1F (centres unmarked) | 12.3
O=[N+]([O-])c1ccc(/C=N\N2CCN(c3ccc(Cl)cc3)CC2)cc1 | 14.9
COc1ccccc1CNC(=O)N1CCN(S(=O)(=O)c2ccc(C)cc2)CC1 | 9.88
CCCCc1ncc(CN2CCC(CC3CCCCO3)(C(=O)OCC)CC2)[nH]1 (centres unmarked) | -19.8
Cc1ccc(O)c(C(=O)c2cc(C(=O)NCCC(C)C)c(=O)n(CCC(C)C)c2)c1 | 15.2
